Experimental data published in the RNAGym collection of RNA variant scans (doi:10.1073/pnas.2313332121).
Variants at the floor of the assay are shown more often than the library holds them.

B1: TPR 5TU (parent)
chain: GGAUCUUCUCGAUCUAACAAAAAAGACAAAUCUGCCACAAAGCUUGAGAGCAUCUUCGGAUGCAGAGGCGGCAGCCUUCGGUGGCGCGAUAGCGCCAACGUUCUCAACUAUGACACGCAAAACGCGUGCUCCGUUGAAUGGAGUUUAUCAUG

Variants of: B1
Experiment: polymerase ribozyme fitness, log enrichment relative to wild type (log ratio); higher = more active; in vitro selection for triplet polymerase activity
In short: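 One round of in vitro selection, in triplicate, was applied to PCR-built, transcribed mutant libraries of each subunit of a heterodimeric triplet polymerase ribozyme. The steps were annealing with a biotinylated primer, partner subunit and triplets, incubation frozen at −7 °C, gel excision of extended constructs, streptavidin-bead capture and RT-PCR. Fitness is the logarithm, base 2, of genotype enrichment over wild-type enrichment from inverse-variance-weighted replicate averages of Illumina-sequenced inputs and outputs, keeping genotypes with ≥10 input reads and ≥1 read per output.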

Variant	polymerase ribozyme fitness (log ratio)
GGAUCUUCUCGAUCUAACAAAAAAGUCAAAUCUGCCACAAAGCUUGAGAGUAUCUUCGGAUGCAGAGGCGGCAGCCUUCGGUGGCGCGAUAGCGCCAACGUUCUCAACUAUGAUACGCAAAACGCGUGUUCCGUUGAAUGGAGUUUAUCAUG [A26U C51U C114U C129U]	≤ -4.2
GGAUCUUCUCGAUCUAACAAAAAAGUCAAAUCUGCCACAAAGCUUGAGAGUAUCUUCGGAUGCAGAGGCGGCAGCCUUCAGUGGCGCGAUAGCGCCAACGUUCUCAACUAUGACACGCAAAACGCGUGCUCCGUUGAAUGGAGUUUAUCAUG [A26U C51U G80A]	≤ -4.2
GGAUCUUCUCGAUCUAACAAAAAAGUCAAAUCUGCCACAAAGCUUGAGAGCAUCUUAGGAUGCAGAGGCGGCAGCCUUCGGUGGUGCGAUAGCGCCAACGUUCUCACCUAUGACACGCAAAACGCGUGCUCCGUUGAAUGGAGUUUAUCAUG [A26U C57A C85U A107C]	≤ -4.2
GGAUCUUCUCGAUCUAACAAAAAAGUCAAAUCUGCCACAAAGCUUGAGAGCAUCUUAGGAUGCAGAGGCGGCAGCCUUCGGUCGCGCGAUAGCGCCAACGUUCUCAACUAUGAUACGCAAAACGCGUGCUCCGUUGAAUGGAGAUUAUCAUG [A26U C57A G83C C114U U144A]	≤ -4.2
GGAUCUUCUCGAUCUAACAAAAAAGUCAAAUCUGCCACAAAGCUUGAGAGCAUCUUGGGAUGCAGAGGCGGCAGCCUUCGGUUGCGCGAUAGCGCCAACGUUCUCAACUAUGACACGUAAAACGCGUACUCCGUUGAAUGGAGUUUAUCAUG [A26U C57G G83U C118U G128A]	≤ -4.2
GGAUCUUCUCGAUCUAACAAAAAAGUCAAAUCUGCCACAAAGCUUGAGAGCAUCUUUGGAUGCAGAGGCGGCAGCCUUCGGUGGCGCGAUAACGCCAACGUUCUCAACUAUGACACGCAGAACGCGUGCUCCGUUGAAUGGAGUUCAUCAUG [A26U C57U G92A A120G U146C]	≤ -4.2
GGAUCUUCUCGAUCUAACAAAAAAGUCAAAUCUGCCACAAAGCUUGAGAGCAUCUUCGGAUGCAGAGGAGGCAGCCUUCGGUGGAGCGAUAGCGCCAACGUUCUCAACUAUGACACGCAAAACGCGUGCUCCGUUGAAUGGAGUUUAUUAUG [A26U C69A C85A C149U]	≤ -4.2
GGAUCUUCUCGAUCUAACAAAAAAGUCAAAUCUGCCACAAAGCUUGAGAGCAUCUUCGGAUGCAGAGGCGGGAGCCUUCGAUGGCCCGAUAGCGCCAACGUUCUCAACUAUGACACGCAAAACGCGUGCUCCGUUGAAUGGAGUUUAUCAUG [A26U C72G G81A G86C]	≤ -4.2
GGAUCUUCUCGAUCUAACAAAAAAGUCAAAUCUGCCACAAAGCUUGAGAGCAUCUUCGGAUGCAGAGGCGGGAGCCUUCGGUCGCGCGAUAGCGCCAACGUUCUCAACUAUGACACGCAAAACGCGUGCUCCGUUGAAUGGAGUUUAUCAUG [A26U C72G G83C]	≤ -4.2
GGAUCUUCUCGAUCUAACAAAAAAGUCAAAUCUGCCACAAAGCUUGAGAGCAUCUUCGGAUGCAGAGGCGGCAGUCUUCGGUGGCGCGAUAGCGCCAACGUUCUCAACUAUGACACGCAAAACGCGUGCUCCGUUGAAUGGAGUUUAGCAUG [A26U C75U U148G]	≤ -4.2
GGAUCUUCUCGAUCUAACAAAAAAGUCAAAUCUGCCACAAAGCUUGAGAGCAUCUUCGGAUGCAGAGGCGGCAGCCUUAGGUGGCGCGAUAGCGCCAACGUUCUCAACUAUGACACGCAAAACGCGUGCUCCGUUGAAUGGAGUUUAUCAUG [A26U C79A]	≤ -4.2
GGAUCUUCUCGAUCUAACAAAAAAGUCAAAUCUGCCACAAAGCUUGAGAGCAUCUUCGGAUGCAGAGGCGGCAGCCUUAGGUUGCGCGAUAGCGCCAACGUUCUCAACUAUGACACGCAAAACGCGUGCUCCGUUGAAUGGAGUUUAUCAUG [A26U C79A G83U]	≤ -4.2
GGAUCUUCUCGAUCUAACAAAAAAGUCAAAUCUGCCACAAAGCUUGAGAGCAUCUUCGGAUGCAGAGGCGGCAGCCUUCGGUGGUGCGAUAGCGCCAACGUUCUCAACUAUGACACGCAAAACGCGUGCUCCGUUGAAUGGAGUUUAUCAUG [A26U C85U]	-1.63
GGAUCUUCUCGAUCUAACAAAAAAGUCAAAUCUGCCACAAAGCUUGAGAGCAUCUUCGGAUGCAGAGGCGGCAGCCUUCGGUGGUGCGAUAGCGCCAACGUUCUUAACUAUGACACGCAAAACGCGUGCUCCGUUGAAUGGAGUUUAUCAUG [A26U C85U C105U]	-1.82
GGAUCUUCUCGAUCUAACAAAAAAGUCAAAUCUGCCACAAAGCUUGAGAGCAUCUUCGGAUGCAGAGGCGGCAGCCUUCGGUGGCGGGAUAGCGCCAACGUUCUCAACUAUGACACGCAAAACGCGUGCUCCGUUGAAUGGAGUUUAUCAUG [A26U C87G]	≤ -4.2
GGAUCUUCUCGAUCUAACAAAAAAGUCAAAUCUGCCACAAAGCUUGAGAGCAUCUUCGGAUGCAGAGGCGGCAGCCUUCGGUGGCGCGAUAGUGCCAACGUUCUCAACUAUGACACGUAAAACGAGUGCUCCGUUGAAUGGAGUUUAUCAUG [A26U C93U C118U C125A]	≤ -4.2
GGAUCUUCUCGAUCUAACAAAAAAGUCAAAUCUGCCACAAAGCUUGAGAGCAUCUUCGGAUGCAGAGGCGGCAGCCUUCGGUGGCGCGAUAGCGCUAACGUUCUCAACUAUGACAGGCAAAACGCGUGCUCCGUUGAAUGGAGUUUAUCAUG [A26U C96U C116G]	-1.18
GGAUCUUCUCGAUCUAACAAAAAAGUCAAAUCUGCCACAAAGCUUGAGAGCAUCUUCGGAUGCAGAGGCGGCAGCCUUCGGUGGCGCGAUAGCGCCAAAGUUCUCAACUAUGACACGCAAAACGCGUGCUCCUUUGAAUGGACUUGAUCAUG [A26U C99A G133U G143C U146G]	≤ -4.2
GGAUCUUCUCGAUCUAACAAAAAAGUCAAAUCUGCCACAAAGCUUGAGAGCAUCUUCGGAUGCAGAGGCGGCAGCCUUCGGUGGCGCGAUAGCGCCAACGUUCUCAACUAUGACACGAAAAACGCGUGCUCCGUUGAAUGGAGUUUAUCAUG [A26U C118A]	-2.33

Variant	polymerase ribozyme fitness (log ratio)
GGAUCUUCUCGAUCUAACAAAAAAGUCAAAUCUGCCACAAAGCUUGAGAGCAUCUUCGGAUGCAGAGGCGGCAGCCUUCGGUGGCGCGAUAGCGCCAACGUUCUCAACUAUGACACGGAAAACGCGUGCUCCGUUGAAUGGAGUUUAUCAUG [A26U C118G]	-2.12
GGAUCUUCUCGAUCUAACAAAAAAGUCAAAUCUGCCACAAAGCUUGAGAGCAUCUUCGGAUGCAGAGGCGGCAGCCUUCGGUGGCGCGAUAGCGCCAACGUUCUCAACUAUGACACGCAAAACGAGUGCUCCGUUGAAUGGAGUUUAUCAUG [A26U C125A]	-1.8
GGAUCUUCUCGAUCUAACAAAAAAGUCAAAUCUGCCACAAAACUUGAGAGCAUCUUCGGAUGCAGAGGCGGCAGCCUUCGGUGGCGCGAUAGCGCCAACGUUCUCAACUAUGACACGCAAAACGCGUGCUCCGUUGAAUGGAGUUUAUCAUG [A26U G42A]	≤ -4.2
GGAUCUUCUCGAUCUAACAAAAAAGUCAAAUCUGCCACAAAACUUGAGAGCAUCUUCGGAUGCAGAGGCGGCAGCCUUCGGUGGAGCUAUAGCGCCAACGUUCUCAACUAUGACACGCAAAACGCGUGCUCCCUUGAAUGGAGUUUAUCGUG [A26U G42A C85A G88U G133C A150G]	≤ -4.2
GGAUCUUCUCGAUCUAACAAAAAAGUCAAAUCUGCCACAAAACUUGAUAGCAUCUUCGGAUGCAGAGGCGGCAGCCUUCGGUGGGGAGAUAGCGCCAACGUACUCAACUAUGACACGCAAAACGCGUGCUCCGUUGAAUGGAGUUUAUCAUG [A26U G42A G48U C85G C87A U102A]	≤ -4.2
GGAUCUUCUCGAUCUAACAAAAAAGUCAAAUCUGCCACAAACCUUGAGAGCAUCUUCGGAUGCAGAGGCGGCAGCCUUCGGUGGCGCGAUAGGGCCAACGUUCUCAACUAUGACUCGCAAAACGCGUGCUCCGUUGAAUGGAGUUUAUCAUG [A26U G42C C93G A115U]	≤ -4.2
GGAUCUUCUCGAUCUAACAAAAAAGUCAAAUCUGCCACAAAUCUUGAGAGUAUCUUCGGAUGCAGAGGCGGCAGCCUUAGGUGGCUCGAUAGCGCCAACGUUCUCAACUAUGACACGCAAAACGCGUGCUCCGUUGAAUGGAGUUUAUCAUG [A26U G42U C51U C79A G86U]	≤ -4.2
GGAUCUUCUCGAUCUAACAAAAAAGUCAAAUCUGCCACAAAGCUUGAAAACAUCUUGGGUUGCAGAGGCGGCAGCCUUCGGUGGCGCGAUAGCGCCAACGUUCUCAACUAUGACACGUAAAACGCGUGCUCCGUUGGAUGGAGUUUAUCUUG [A26U G48A G50A C57G A60U C118U A137G A150U]	≤ -4.2
GGAUCUUCUCGAUCUAACAAAAAAGUCAAAUCUGCCACAAAGCUUGACCGCAUCUUCGAAUGCAGAGGUGGCAGCCUUCGGUGGCGCGAUAUCGCCAACGUUCUCAACUAUGACACGCAAAACGCGUGCUCCGUUGAAUGGAGUUUAUCAUG [A26U G48C A49C G59A C69U G92U]	≤ -4.2
GGAUCUUCUCGAUCUAACAAAAAAGUCAAAUCUGCCACAAAGCUUGACUGCAUCUUCGGAUGCCGAGGCGGCAGCCUUCGGUGGCGCGAGAGCGCCAACGUUCUCAACUAUGACACGCAAAACGCGUGCUCCGUUGGAUGGAGUUUAUCAUG [A26U G48C A49U A64C U90G A137G]	-4.11
GGAUCUUCUCGAUCUAACAAAAAAGUCAAAUCUGCCACAAAGCUUGACAGCAUCUUCGGAUGCAGAGGCGGCAGCCUUCGGUGGCGCGAUAGCGCCAACGUUCUCACCUAUGACACGCCAAACGCGUGCUCCGUUGAAUGGAGUUUAUCAUG [A26U G48C A107C A119C]	≤ -4.2
GGAUCUUCUCGAUCUAACAAAAAAGUCAAAUCUGCCACAAAGCUUGAGACCAUCUUCGGAUGCAGAGGCGGCAGCCUUCGGUGGCGCGAUAGCGCCAACGUUCUCAACUAUGACACGCAAAACGCGUGCUCCGUUGAAUGGAGUUUAUCAUG [A26U G50C]	≤ -4.2
GGAUCUUCUCGAUCUAACAAAAAAGUCAAAUCUGCCACAAAGCUUGAGAUCAUCUUCGGAUGCAGAGGCGGCAGUCUUCGGUGGCGAGAUGGCGCCAACGUUCUCUCCUCUGACACGCAAAACGCGUGCUCCGUUGAAUGGAGUUUAUCUUG [A26U G50U C75U C87A A91G A106U A107C A110C A150U]	≤ -4.2
GGAUCUUCUCGAUCUAACAAAAAAGUCAAAUCUGCCACAAAGCUUGAGAGCAUCUUCCGAUGCAGAGACGGCAGCCUUCUGUGGCGCGAUGGCGCCAACGUUCUCAACUAUGACACGCAAACUUCGUGCUCCGUUGAAUGGAGUUUAUCAUG [A26U G58C G68A G80U A91G A122C C123U G124U]	≤ -4.2
GGAUCUUCUCGAUCUAACAAAAAAGUCAAAUCUGCCACAAAGCUUGAGAGCAUCUUCCGAUGCAGAGGCGGCAGCCUUCGGUGGCGCGAUAGCGCCAACGUGCUCAUCUAUGACGCGCAAAACGCGUGCUCCGUUGAAUGGAGUUUAUCAUG [A26U G58C U102G A107U A115G]	≤ -4.2
GGAUCUUCUCGAUCUAACAAAAAAGUCAAAUCUGCCACAAAGCUUGAGAGCAUCUUCGCAUGCAGAGGCGGCAGCCUUCGGUGGCGCGAUAGCGCCAACGUUGUCCACUAUGACACGCAAAACGCGUGCUCUGUUGAAUGGAGUUUAUCAUG [A26U G59C C103G A106C C132U]	≤ -4.2
GGAUCUUCUCGAUCUAACAAAAAAGUCAAAUCUGCCACAAAGCUUGAGAGCAUCUUCGGAUGCAGAAGCGGGAGCCUUCGGUGGCGCGAUAGCUCCGACGUUCUCAACUAUGACACGCAAAACGCGUGCUCCGUUGAAUGGAGUUUGUCAUG [A26U G67A C72G G94U A97G A147G]	≤ -4.2
GGAUCUUCUCGAUCUAACAAAAAAGUCAAAUCUGCCACAAAGCUUGAGAGCAUCUUCGGAUGCAGAAGCGGCAGCCUUCGGUAGCGCGUUAGCGCCAACGUUCUCGACUAUGACACGCAAAACGCGUGCUCCGUUGAAUGGAGUUUAUCAUG [A26U G67A G83A A89U A106G]	≤ -4.2
GGAUCUUCUCGAUCUAACAAAAAAGUCAAAUCUGCCACAAAGCUUGAGAGCAUCUUCGGAUGCAGAGGCGACAGCCUUCGGUAGCGCGAUAGCGCCAACGUUCUCAACUAUGACACGCAUAACGCGUGCUCCGUUGAAUGGAGUUUAUCAUG [A26U G71A G83A A120U]	≤ -4.2
